The values that follow come from the supplement of paper PMC11417369.

Some of the results follow.

For the experiment, the system named is PfHDP1 homeodomain (GST-tagged). Description: gcPBM binding intensity (ln(normalized median fluorescence intensity)); higher = stronger DNA binding. The gist of the method: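 DNA-binding domains from P. falciparum, fused to GST and produced in E. coli, were put on an Agilent 4 × 180k double-stranded probe array for 1 h in 1× PBS holding 1% milk, 0.2 mg/ml BSA, 0.5% salmon testes DNA and 0.03% Triton X-100. Probes were primer-extended, 36 bp long and drawn from intergenic genomic regions, with negative controls included. After Alexa488 anti-GST antibody detection and a 488 nm scan, binding intensity was set as the highest Masliner-normalised natural-log median intensity across replicate spots of either probe orientation.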
Regarding “TCATGTTTTTAATATTGTACTCTCATTTTATATATC [XGTACX_site8412]”, the “gcPBM binding intensity (ln)” value is 6.41.
The same measure for ATATTTACTCACGTCTTGCACTGAGCAAGCATTATA: 8.75.
The same measure for “AGCTATTAATTTATTACATGCAAGATTAAAAGACTA [TGCATGCA_site281]”: 6.14; for “TTTTGATTTTTTTATTGTACCCATAAACATATAATT [XGTACX_site5202]”: 6.67.
The same measure for “TACAAACAATTAAACAAACACACATATACATGTATA [CACACA_site2061]”: 6.46; for “TATTTTTGAAGTTGCACACACAAAAATAAAAAGTAT [CACACA_site418]”: 9.26; for “TATATATTGCCCTTCACACACACACCCATATATATA [CACACA_site2493]”: 7.45.
Regarding “CACACCACCAACAAAAGTACATACATATATATATAT [XGTACX_site5781]”, the “gcPBM binding intensity (ln)” value is 9.02.
The same measure for “ATATATTATAAATGTAGTACCGTTACATAGTCATAG [XGTACX_site390]”: 6.77.
The figure for “ATCAAGCACGAACACACACACACACGCACGCCCACA [CACACA_site6308]” is 7.4.
The figure for “ACTACGAGTCGTAGAGTGCAGTCTGGAGAAAAGTAC [GTGCAC_site9769]” is 7.3; for “ATTTTTTTTTTTTGTACATACCACATATACAAAACA [CACACA_negctrl_site1240]” it is 6.94; for “TTTTTTTTTTTCTCCATACACACTTGATAAAACTTT [CACACA_site615]” it is 6.57.
With “TAATTGATTCTTCACCGTACTCACACATATATATAT [XGTACX_site6530]”, the “gcPBM binding intensity (ln)” value is 8.53.
On to “TATTTATACATACGTACACACAAATATTAAAATATA [CACACA_site7004]”, for which the “gcPBM binding intensity (ln)” value was found to be 6.68.
The figure for “TGTAAGTATTCTTGAGGTACACATATAAATATAGTA [XGTACX_site3207]” is 6.18.
The same measure for “AATATTATATAATAAAGTACATATATATTCATATTT [XGTACX_site7204]”: 6.34; for “ATATATATATATAGGAGTACATGAAATACTTAAAAA [XGTACX_site8851]”: 8.93.
The figure for “GTGTGAAGATATAAATGCATTTTTTTATACATTTTC [CACACA_negctrl_site117]” is 6.51; for “AAAAAAGAAATAATCAAATAAATAAAAAAGATGAAT [XGTACX_negctrl_site607]” it is 6.78.
In the case of “AAATATTAAATGGAAAACAAATATATATATCTTAAT [XGTACX_negctrl_site383]”, the “gcPBM binding intensity (ln)” value is 6.47.
The figure for “ATATATTGAACCTATGCATGTAAAATATATGTAATA [TGCATGCA_site644]” is 6.22; for “TGTGTGGATATATGTATGCACTACCCTTTGGGTCAT [GTGCAC_site9506]” it is 7; for “AAAAAAAAAAAATACACACACACATATAAATATGTA [CACACA_site6900]” it is 6.59.
For “GTTTATATATGCTTATAATTTTCAATTGTTTTACAA [TGCATGCA_negctrl_site384]”, the “gcPBM binding intensity (ln)” value came out at 6.63.
Turning to “TTTTATGTTTTTTTTATAAATATTAAAATTCTATAT [CACACA_negctrl_site1477]”, the “gcPBM binding intensity (ln)” value amounted to 6.15.
The figure for “ATATATATATATAATTGTACATTTTTAACCTTAACA [XGTACX_site7910]” is 8.98.
The same measure for “AATGTTAAAAATGAAAGTACATGGAATTTATTATTT [XGTACX_site4095]”: 5.94.
In the case of “ATATTGTTATATGTTTGTACATATTTTTTATATTTT [XGTACX_site6834]”, the “gcPBM binding intensity (ln)” value stood at 6.56.
The same measure for “TATAAATACATCCTATACTTCTCTTTTACAGTTTTA [CACACA_negctrl_site1283]”: 6.51.
The same measure for “TGATTCAATTTATGCACACTAAAAATTAATTATATT [CACACA_site271]”: 10.1.
Turning to “TTTTTTTTTTATACATGTACTTAAAAGTAGCACCTT [XGTACX_site1855]”, the “gcPBM binding intensity (ln)” value stood at 6.52.
The figure for “GACATTAATTATTTGACACACGACTGGGTGGTGATT [CACACA_site306]” is 6.15; for “TTTGTAAAAGGTCATACACACATATTCAAAAGAAGT [CACACA_site2947]” it is 6.85; for “ATTATATATACAACAAGTACAAAAGAAAAATATTAT [XGTACX_site2914]” it is 6.92.
The same measure for “TATATATATACATAATGTACAAGAATTTGTATTGAA [XGTACX_site627]”: 7.63; for “TAAAAATAAAGAAAATGTACATAAATAAAAATAAAG [XGTACX_site2279]”: 6.83; for “ACAGGAGTATAACCTCGTACAAAATATATTTACCAT [XGTACX_site5805]”: 6.79.
The same measure for “TCTTTAAAAAAAAAAAAAAAAAATTCCAAATAAATA [TGCATGCA_negctrl_site538]”: 5.88.
For “CCTAGAAAAGCATATACACACGCGCAAAATAAAATT [CACACA_site4902]”, the “gcPBM binding intensity (ln)” value came out at 7.17.
For “TACACACATTACAGATGTACATAAAATTAAAAAAAT [XGTACX_site1804]”, the “gcPBM binding intensity (ln)” value is 6.82.
Consider “TCAAAAAATATATTTGCACACTCAAAAAAAAAAAAA [CACACA_site860]”, for which the “gcPBM binding intensity (ln)” value turned out to be 10.2.
As to “TATATATATATAAATACATGCATATAATTAATCCAT [TGCATGCA_site400]”, the “gcPBM binding intensity (ln)” value came to 8.75.
Consider “ATTCCAAAAAAATCAAGTACTAATTTATTATATTAC [XGTACX_site3920]”, for which the “gcPBM binding intensity (ln)” value turned out to be 6.2.
The figure for “ATTTTTTTTTTTTTTTTAAGACAAACTCTTAATTTA [CACACA_negctrl_site1389]” is 6.21.
Turning to “TATTTTTTTAAGTGCAGTACACTTAATTTCCCCCAA [XGTACX_site7328]”, the “gcPBM binding intensity (ln)” value came to 7.67.
The figure for “AAAAAAAAAAAAAAAAAAATATATTATATATATATA [XGTACX_negctrl_site467]” is 8.89; for “TTTTTCACATTTCAGTGTACATTTTAATCATATATA [XGTACX_site915]” it is 6.57; for “CGACAAAAATTTTACAGTACAGTATAAACCTTTTTA [XGTACX_site290]” it is 6.1.
Turning to “CTTTTATATGTCTAATGTACGGGCAATATAAATTTG [XGTACX_site8323]”, the “gcPBM binding intensity (ln)” value turned out to be 6.21.
As for “TATATAAATTTAATAACACACATATAAAAATGAATT [CACACA_site2366]”, the “gcPBM binding intensity (ln)” value came to 6.77.
The figure for “AAAAAGCAGGATTATACACACAAATATATATATGTT [CACACA_site1077]” is 6.61.
Turning to “ATATGTTTACGTAAATGTACACGTCAGTATATTTCT [XGTACX_site8199]”, the “gcPBM binding intensity (ln)” value was found to be 6.7.
The same measure for “ATATATATATAACATTGTACACACAAAGAAATAATA [XGTACX_site6440]”: 8.3.
The figure for “AACTTGTATATATACACACACACACTATCTTTTTTT [CACACA_site8601]” is 7.19.
The figure for “TTTTATAATAAGTATGTAAAAATTATATATATATAT [CACACA_negctrl_site711]” is 8.98.
